# In the supplement of paper PMC8728848:
# The list shows a part of the results.
# Tests used:
# Assay in all cases: glycan array binding signal (z-score within array); higher = stronger binding
# Details in all cases: glycan notation: IUPAC condensed, linker removed
# [1] = molecular target: Gal(b1-4)GlcNAc(b1-2)[Gal(b1-4)GlcNAc(b1-6)]Man(a1-6)[Gal(b1-4)GlcNAc(b1-2)Man(a1-3)]Man(b1-4)GlcNAc(b1-4)[Fuc(a1-6)]GlcNAc
# Method in brief: (§1)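 Glycan array binding is given as a within-array Z-score, which can be read as non-binding when negative. The arrays, 3228 of them, came from the Consortium for Functional Glycomics database and were retained only where the protein sequence was available. Z-scores were averaged across arrays of the same protein sequence at different concentrations or buffers and across linkers.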
# [2] = molecular target: Gal(b1-4)GlcNAc(b1-2)[Gal(b1-4)GlcNAc(b1-6)]Man(a1-6)[GlcNAc(b1-4)][Gal(b1-4)GlcNAc(b1-2)Man(a1-3)]Man(b1-4)GlcNAc(b1-4)GlcNAc
# Method in brief: as §1
# [3] = molecular target: Gal(b1-4)GlcNAc(b1-2)[Gal(b1-4)GlcNAc(b1-6)]Man(a1-6)[GlcNAc(b1-4)][Gal(b1-4)GlcNAc(b1-2)[Gal(b1-4)GlcNAc(b1-4)]Man(a1-3)]Man(b1-4)GlcNAc(b1-4)[Fuc(a1-6)]GlcNAc
# Method in brief: as §1
# [4] = molecular target: Gal(b1-4)GlcNAc(b1-3)Gal(b1-3)GalNAc
# Method in brief: as §1
# [5] = molecular target: Gal(b1-4)GlcNAc(b1-3)Gal(b1-3)GlcNAc
# Method in brief: as §1
# [6] = molecular target: Gal(b1-4)GlcNAc(b1-3)Gal(b1-4)Glc
# Method in brief: as §1
# [7] = molecular target: Gal(b1-4)GlcNAc(b1-3)Gal(b1-4)GlcNAc
# Method in brief: as §1
# [8] = molecular target: Gal(b1-4)GlcNAc(b1-3)Gal(b1-4)GlcNAc(b1-2)Man(a1-3)[Gal(b1-4)GlcNAc(b1-3)Gal(b1-4)GlcNAc(b1-2)Man(a1-6)]Man(b1-4)GlcNAc(b1-4)GlcNAc
# Method in brief: as §1
# [9] = molecular target: Gal(b1-4)GlcNAc(b1-3)Gal(b1-4)GlcNAc(b1-2)Man(a1-3)[Gal(b1-4)GlcNAc(b1-3)Gal(b1-4)GlcNAc(b1-2)Man(a1-6)]Man(b1-4)GlcNAc(b1-4)[Fuc(a1-6)]GlcNAc
# Method in brief: as §1
# [10] = molecular target: Gal(b1-4)GlcNAc(b1-3)Gal(b1-4)GlcNAc(b1-2)[Gal(b1-4)GlcNAc(b1-3)Gal(b1-4)GlcNAc(b1-6)]Man(a1-6)[Gal(b1-4)GlcNAc(b1-3)Gal(b1-4)GlcNAc(b1-2)Man(a1-3)]Man(b1-4)GlcNAc(b1-4)GlcNAc
# Method in brief: as §1
# [11] = molecular target: Gal(b1-4)GlcNAc(b1-3)Gal(b1-4)GlcNAc(b1-2)[Gal(b1-4)GlcNAc(b1-3)Gal(b1-4)GlcNAc(b1-6)]Man(a1-6)[Gal(b1-4)GlcNAc(b1-3)Gal(b1-4)GlcNAc(b1-2)Man(a1-3)]Man(b1-4)GlcNAc(b1-4)[Fuc(a1-6)]GlcNAc
# Method in brief: as §1
# [12] = molecular target: Gal(b1-4)GlcNAc(b1-3)Gal(b1-4)GlcNAc(b1-3)Gal(b1-4)GlcNAc
# Method in brief: as §1
# [13] = molecular target: Gal(b1-4)GlcNAc(b1-3)Gal(b1-4)GlcNAc(b1-3)Gal(b1-4)GlcNAc(b1-2)Man(a1-3)[Gal(b1-4)GlcNAc(b1-3)Gal(b1-4)GlcNAc(b1-3)Gal(b1-4)GlcNAc(b1-2)Man(a1-6)]Man(b1-4)GlcNAc(b1-4)GlcNAc
# Method in brief: as §1
# [14] = molecular target: Gal(b1-4)GlcNAc(b1-3)Gal(b1-4)GlcNAc(b1-3)Gal(b1-4)GlcNAc(b1-2)Man(a1-3)[Gal(b1-4)GlcNAc(b1-3)Gal(b1-4)GlcNAc(b1-3)Gal(b1-4)GlcNAc(b1-2)Man(a1-6)]Man(b1-4)GlcNAc(b1-4)[Fuc(a1-6)]GlcNAc
# Method in brief: as §1
# [15] = molecular target: Gal(b1-4)GlcNAc(b1-3)Gal(b1-4)GlcNAc(b1-3)Gal(b1-4)GlcNAc(b1-2)[Gal(b1-4)GlcNAc(b1-3)Gal(b1-4)GlcNAc(b1-3)Gal(b1-4)GlcNAc(b1-6)]Man(a1-6)[Gal(b1-4)GlcNAc(b1-3)Gal(b1-4)GlcNAc(b1-3)Gal(b1-4)GlcNAc(b1-2)Man(a1-3)]Man(b1-4)GlcNAc(b1-4)[Fuc(a1-6)]GlcNAc
# Method in brief: as §1
# [16] = molecular target: Gal(b1-4)GlcNAc(b1-3)Gal(b1-4)GlcNAc(b1-3)Gal(b1-4)GlcNAc(b1-3)Gal(b1-4)GlcNAc(b1-2)Man(a1-3)[Gal(b1-4)GlcNAc(b1-3)Gal(b1-4)GlcNAc(b1-3)Gal(b1-4)GlcNAc(b1-3)Gal(b1-4)GlcNAc(b1-2)Man(a1-6)]Man(b1-4)GlcNAc(b1-4)GlcNAc
# Method in brief: as §1
# [17] = molecular target: Gal(b1-4)GlcNAc(b1-3)Gal(b1-4)GlcNAc(b1-3)Gal(b1-4)GlcNAc(b1-3)Gal(b1-4)GlcNAc(b1-2)Man(a1-3)[Gal(b1-4)GlcNAc(b1-3)Gal(b1-4)GlcNAc(b1-3)Gal(b1-4)GlcNAc(b1-3)Gal(b1-4)GlcNAc(b1-2)Man(a1-6)]Man(b1-4)GlcNAc(b1-4)[Fuc(a1-6)]GlcNAc
# Method in brief: as §1
# [18] = molecular target: Gal(b1-4)GlcNAc(b1-3)Gal(b1-4)GlcNAc(b1-3)Gal(b1-4)GlcNAc(b1-3)Gal(b1-4)GlcNAc(b1-2)[Gal(b1-4)GlcNAc(b1-3)Gal(b1-4)GlcNAc(b1-3)Gal(b1-4)GlcNAc(b1-3)Gal(b1-4)GlcNAc(b1-6)]Man(a1-6)[Gal(b1-4)GlcNAc(b1-3)Gal(b1-4)GlcNAc(b1-3)Gal(b1-4)GlcNAc(b1-3)Gal(b1-4)GlcNAc(b1-2)Man(a1-3)]Man(b1-4)GlcNAc(b1-4)[Fuc(a1-6)]GlcNAc
# Method in brief: as §1
# [19] = molecular target: Gal(b1-4)GlcNAc(b1-3)Gal(b1-4)GlcNAc(b1-3)Gal(b1-4)GlcNAc(b1-3)Gal(b1-4)GlcNAc(b1-3)Gal(b1-4)GlcNAc(b1-2)Man(a1-3)[Gal(b1-4)GlcNAc(b1-3)Gal(b1-4)GlcNAc(b1-3)Gal(b1-4)GlcNAc(b1-3)Gal(b1-4)GlcNAc(b1-3)Gal(b1-4)GlcNAc(b1-2)Man(a1-6)]Man(b1-4)GlcNAc(b1-4)GlcNAc
# Method in brief: as §1
# [20] = molecular target: Gal(b1-4)GlcNAc(b1-3)Gal(b1-4)GlcNAc(b1-3)Gal(b1-4)GlcNAc(b1-3)Gal(b1-4)GlcNAc(b1-3)Gal(b1-4)GlcNAc(b1-2)Man(a1-3)[Gal(b1-4)GlcNAc(b1-3)Gal(b1-4)GlcNAc(b1-3)Gal(b1-4)GlcNAc(b1-3)Gal(b1-4)GlcNAc(b1-3)Gal(b1-4)GlcNAc(b1-2)Man(a1-6)]Man(b1-4)GlcNAc(b1-4)[Fuc(a1-6)]GlcNAc
# Method in brief: as §1
# [21] = molecular target: Gal(b1-4)GlcNAc(b1-3)Gal(b1-4)GlcNAc(b1-3)Gal(b1-4)GlcNAc(b1-3)Gal(b1-4)GlcNAc(b1-3)Gal(b1-4)GlcNAc(b1-2)[Gal(b1-4)GlcNAc(b1-3)Gal(b1-4)GlcNAc(b1-3)Gal(b1-4)GlcNAc(b1-3)Gal(b1-4)GlcNAc(b1-3)Gal(b1-4)GlcNAc(b1-6)]Man(a1-6)[Gal(b1-4)GlcNAc(b1-3)Gal(b1-4)GlcNAc(b1-3)Gal(b1-4)GlcNAc(b1-3)Gal(b1-4)GlcNAc(b1-3)Gal(b1-4)GlcNAc(b1-2)Man(a1-3)]Man(b1-4)GlcNAc(b1-4)[Fuc(a1-6)]GlcNAc
# Method in brief: as §1
# [22] = molecular target: Gal(b1-4)GlcNAc(b1-3)Gal(b1-4)GlcNAc(b1-3)Gal(b1-4)GlcNAc(b1-3)Gal(b1-4)GlcNAc(b1-3)Gal(b1-4)GlcNAc(b1-3)Gal(b1-4)GlcNAc(b1-2)Man(a1-3)[Gal(b1-4)GlcNAc(b1-3)Gal(b1-4)GlcNAc(b1-3)Gal(b1-4)GlcNAc(b1-3)Gal(b1-4)GlcNAc(b1-3)Gal(b1-4)GlcNAc(b1-3)Gal(b1-4)GlcNAc(b1-2)Man(a1-6)]Man(b1-4)GlcNAc(b1-4)GlcNAc
# Method in brief: as §1
# [23] = molecular target: Gal(b1-4)GlcNAc(b1-3)Gal(b1-4)GlcNAc(b1-3)GalNAc
# Method in brief: as §1
binder,measurement,setting,value
BTL (Bryothamnion triquetrum) (protein) ADPICGSSGYSCTTPAILTPKSPGSFPSGYSKVIVTGVGGSYSVYIHRPDGFKVYKASEGGCASFGSYSGGGNSEVGKYGSGGTVVAVACK,glycan array binding signal (z-score),[1],6.49
same,glycan array binding signal (z-score),[2],-0.19
same,glycan array binding signal (z-score),[3],0.044
same,glycan array binding signal (z-score),[4],-0.107
same,glycan array binding signal (z-score),[5],-0.213
same,glycan array binding signal (z-score),[6],-0.253
same,glycan array binding signal (z-score),[7],-0.27
same,glycan array binding signal (z-score),[8],-0.119
same,glycan array binding signal (z-score),[9],6.38
same,glycan array binding signal (z-score),[10],-0.126
same,glycan array binding signal (z-score),[11],3.58
same,glycan array binding signal (z-score),[12],-0.216
same,glycan array binding signal (z-score),[13],-0.258
same,glycan array binding signal (z-score),[14],5.89
same,glycan array binding signal (z-score),[15],2.73
same,glycan array binding signal (z-score),[16],0.005
same,glycan array binding signal (z-score),[17],4.48
same,glycan array binding signal (z-score),[18],2.3
same,glycan array binding signal (z-score),[19],-0.13
same,glycan array binding signal (z-score),[20],4.45
same,glycan array binding signal (z-score),[21],2.65
same,glycan array binding signal (z-score),[22],-0.154
same,glycan array binding signal (z-score),[23],-0.211
